PubChem BioAssay AID1508642 (National Center for Advancing Translational Sciences (NCATS), 2021)
About 200 (0.47%) of roughly 43,000 compounds were called active. About 12% were inconclusive and are not listed. Calls follow the shape of the dose curve; as a rule, active = well fitted cell-killing curve with a large enough effect; inconclusive = small, poorly fitted or top-dose-only effect, or effect the other way; inactive = flat fitted curve, though single readings scatter. The list shows a part of the results.

Assay: Cell viability qHTS assay in S16 Pmp22-F2sN cells; also: nearly all actives have a fitted effect of over 65% in size
Conditions: S16 Pmp22-F2sN Schwann cells viability, CellTiter-Glo, 24 h; series mostly up to 57.5 µM; activity change, negative = cytotoxicity: at the top concentration
How it was run: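 S16 Pmp22-F2sN Schwann cells (500-1,000/well) in phenol-red-free DMEM with 10% FBS received 23 nL compound by pin tool for 24 h at 37 °C. Viability was then read as CellTiter-Glo luminescence after 15 min at room temperature.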
% is scaled to controls: 0 for no effect and ±100 for the full control effect; potency is read from the fitted curve at half-maximal effect.

SMILES | activity change, negative = cytotoxicity | Potency
O=C(CSc1nc2c([nH]c3ccccc32)c(=O)n1-c1ccccc1)N1CCCCC1 | inactive: 3.85% | –
CC(C)CCNC(=O)c1cc(-c2cccnc2)nc2ccc(S(=O)(=O)N3CCC(C)CC3)cc12 | inactive: 1.41% | –
COc1ccc(NC(=O)c2nnn(-c3ccc(C(C)C)cc3)c2C)c(OC)c1 | inactive: 3.17% | –
COc1ccc(OC)c(-c2noc(N3CCN(c4cccc(C(F)(F)F)c4)CC3)n2)c1 | inactive: 11.6% | –
COc1cc(OC)c(NC(=O)c2ccc(-n3cnc4cccnc43)cc2)cc1Cl | inactive: 15.4% | –
CCOC(=O)CC(NC(=O)Cn1nnc(-c2ccc(Cl)cc2)n1)c1ccc(OC)cc1 (stereo unspecified) | inactive: 18.9% | –
Cn1c(CN2CCOCC2)nc2cc(NC(=O)c3ccccc3[N+](=O)[O-])ccc21 | inactive: 0.437% | –
CCOc1cccc2sc(N3CCN(C(=O)c4ccco4)CC3)nc12 | inactive: -0.24% | –
CC1=C(c2ccc(C(C)C)cc2)S(=O)(=O)N=C1N1CCC(C(=O)NCc2ccc(C)o2)CC1 | inactive: -4.23% | –
O=C(NC1CCCCC1)c1ccc(CSc2nc3cccnc3n2Cc2ccccc2)cc1 | inactive: -25.3% | –
Cc1nc2c(-c3ccc(F)cc3)c(C)nn2c(C)c1CCC(=O)NCc1ccc(F)cc1 | inactive: 4.22% | –
CCOC(=O)c1c(C)[nH]c(CCC(=O)NCc2ccc(OC)cc2OC)c1C | inactive: 7.47% | –
Cc1c(CC(=O)NCCc2ccccc2)c(=O)oc2c(C)c3occ(C(C)(C)C)c3cc12 | inactive: -9.88% | –
CC(=O)c1cccc(NC(=O)Cn2ccn3nc(-c4ccccc4)cc3c2=O)c1 | inactive: 0.165% | –
Cc1cc(Nc2cc(Cl)ccc2C)n2nc(-c3ccccc3)nc2n1 | inactive: 10.1% | –
CCOC(=O)c1c(N)n(-c2ccc(OCC)cc2)c2nc3ccccc3nc12 | inactive: 25.1% | –
Cc1ccc(CN(Cc2cccn2-c2nnc(N3CCCC3=O)s2)C(=O)Nc2ccccc2Cl)cc1 | inactive: -7.26% | –
O=C(COc1ccccc1-c1nc(-c2ccccc2)no1)Nc1ccc([N+](=O)[O-])cc1 | inactive: 9.53% | –
CC1=C(C(=O)Nc2ccccc2Br)C2(CCC(C)CC2)OC1=O (stereo unspecified) | inactive: 7.1% | –
CCCCC12CN3CC(C)(CN(C1)C3c1ccc(OCc3ccccc3)cc1)C2=O (stereo unspecified) | inactive: 5.42% | –
Cc1ccc(-c2nc3sc(CCNC(=O)c4ccc(F)c(F)c4)c(C)n3n2)cc1 | inactive: -12.3% | –
Cc1ccc(CNC(=O)CCCCCn2c(=O)c3sccc3n(CC(=O)N3CCCCC3C)c2=O)cc1 (stereo unspecified) | inactive: 0.505% | –
O=C(CCCCCn1c(=O)[nH]c2ccccc2c1=O)N1CCN(c2cccc(C(F)(F)F)c2)CC1 | inactive: -22.4% | –
CCCn1cc(S(=O)(=O)c2ccc(C)c(C)c2)c(=O)c2cc(F)c(N3CCCCC3)cc21 | inactive: 3.25% | –
CC(C)NC(=O)c1ccc(CSc2nc3ccncc3n2Cc2cccc(F)c2)cc1 | inactive: 18.7% | –
FC(F)(F)c1cccc(Nc2nc3nonc3nc2Nc2ccc(Cl)cc2)c1 | – | active: 8.91 µM
